Measured values as given in PubChem BioAssay AID686978 (National Center for Advancing Translational Sciences (NCATS), 2013).
Screen size: about 420,000 compounds; about 64,000 (15%) were called active. The inconclusive results got no clear call from the source; some entries with a clear call stand among them for comparison. Calls come from the whole dose curve; as a rule, active = well fitted inhibition curve with a large enough effect; inconclusive = small, poorly fitted or top-dose-only effect; inactive = flat fitted curve, though single readings scatter. Potencies of inconclusive entries are left out as doubtful fits.

test: qHTS for Inhibitors of human tyrosyl-DNA phosphodiesterase 1 (TDP1): qHTS in cells in absence of CPT; conditions: DT40 Tdp1-/- hTDP1 cells, no CPT, ATP luminescence, 48 h; activity change, negative = growth inhibition: at 46.2 µM (top of the series) unless noted; note: nearly all actives have a fitted effect of over 55% in size
How it was run: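 Cells were dispensed at 400 per well, compounds added by pin tool, plates incubated ≥48 hr at 37 °C, then CellTiter-Glo added for 30 min at room temperature before luminescence reading. Line: DT40 Tdp1-/- complemented with hTDP1; camptothecin omitted.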
% is set by controls: 0 for no effect and ±100 for the full control effect; potency is the fitted concentration of half-maximal effect; tags give direction and shape of the fitted curve.

Row | Compound | Potency | activity change, negative = growth inhibition
1 | Cc1cccc(Cn2cccc2CNS(=O)(=O)c2ccc(C)c(C)c2)c1 | inconclusive [inhibitor, single point] | –
2 | CCn1c(SCC(=O)N2CCN(c3ccc(F)cc3)CC2)nc2ccccc2c1=O | inconclusive [inhibitor, partial curve, poor fit] | –
3 | O=C(Cc1c(F)cccc1Cl)Nc1ccc(S(=O)(=O)NCC2CCCO2)cc1 (stereo unspecified) | – | inconclusive: -34.3% [inhibitor]
4 | CCOC(=O)c1scc(-c2ccc(C)cc2)c1S(=O)(=O)Nc1ccc(OC)c(Cl)c1 | active: 14.6 µM | –
5 | Cc1cccc(NS(=O)(=O)c2ccc3nc(-c4ccccc4)[nH]c3c2)c1C | active: 16.4 µM | –
6 | COC(=O)[C@@]12CCCN1[C@H](c1ccc(SC3CCCCC3)cc1)[C@H]1C(=O)N(C)C(=O)[C@H]12 | active: 16.4 µM | –
7 | CC(C)C[C@@H](CN=[N+]=[N-])N1CCN(Cc2ccccc2)CCC1=O | inconclusive [inhibitor, single point] | –
8 | COc1cccc(CN(C)CC(=O)NCc2ccccc2Cl)c1OC | inconclusive [inhibitor, single point] | –
9 | COC(=O)Cn1c(=O)c2c(nc3n2CCCN3CCc2ccccc2)n(C)c1=O | inconclusive [inhibitor, partial curve] | –
10 | Cc1ccccc1-c1ocnc1C(=O)Nc1ccccc1NC(=O)c1ccccn1 | inconclusive [inhibitor, single point] | –
11 | COc1ccccc1OCCCCn1ncc2ccc(OC)c(OC)c2c1=O | inconclusive [inhibitor, single point] | –
12 | CCOC(=O)N1CCN(C(=O)CN(C)S(=O)(=O)c2ccc(OC)c(OC)c2)CC1 | inconclusive [inhibitor, single point] | –
13 | CCOCCCNc1nc2cc(OC)c(OC)cc2c2nc(-c3ccccc3)nn12 | active: 6.51 µM | –
14 | Fc1cccc(Cc2c(-c3cccc(Br)c3)nc3ccc(Br)cn23)c1 | inconclusive [inhibitor, single point] | –
15 | COc1ccc(C2C(C(=O)Nc3ccccc3)=C(C)Nc3nc(-c4ccccc4Cl)nn32)cc1OC (stereo unspecified) | inconclusive [inhibitor, single point] | –
16 | CCC(=O)N1CCc2cc(S(=O)(=O)CCC(=O)Nc3cccc(C)n3)ccc21 | inactive | –
17 | CCOC(=O)c1ccccc1NS(=O)(=O)c1ccc(S(=O)(=O)N2CCCC2)cc1 | inconclusive [inhibitor, single point] | –
18 | CCCn1nnc2sc3c(c2c1=O)CCC(C)C3 (stereo unspecified) | inconclusive [inhibitor, partial curve] | –
19 | Cc1c(S(=O)(=O)O)oc2c1C(=O)C(=O)c1c-2ccc2c1CCCC2(C)C | inactive | –
20 | Cn1nc(SCc2ccccc2)c(=O)[nH]c1=O | inactive | –
21 | Clc1ccccc1Nc1ncnc2c1nc1n2CCCCC1 | inconclusive [inhibitor, partial curve] | –
22 | O=C(Nc1ccccc1F)c1ccccc1-c1ccc(C(F)(F)F)cc1 | inconclusive [inhibitor, single point] | –
23 | COC(=O)C[C@H]1C[C@@H]2c3cc(N(C)C)ccc3O[C@@H]2[C@H](CO)O1 | inactive | –
24 | O=C(CSc1ccc(F)cc1)NCC1(N2CCOCC2)CCCCC1 | inconclusive [inhibitor, full curve, poor fit] | –

Row | Compound | Potency | activity change, negative = growth inhibition
25 | O=C(Nc1ccc2nc(SCCOc3ccccc3)sc2c1)c1ccc2c(c1)OCO2 | inconclusive [inhibitor, partial curve] | –
26 | O=C(CSc1cn(CC(=O)N2CCCC2)c2ccccc12)Nc1ccccc1C(F)(F)F | inconclusive [inhibitor, single point] | –
27 | Oc1ccc(Br)cc1-c1cc(-c2ccccc2Cl)[nH]n1 | inconclusive [inhibitor, single point] | –
28 | OCC1(Cc2ccc(Cl)cc2)CCN(CC2CC=CCC2)CC1 (stereo unspecified) | inconclusive [inhibitor, single point] | –
29 | COc1ccc(CCn2c(=O)c3cccnc3n(Cc3cccc([N+](=O)[O-])c3)c2=O)cc1OC | inactive | –
30 | CCOC(=O)C1=C(C)NC(=O)NC1/C=C/c1ccccc1OC (stereo unspecified) | inconclusive [inhibitor, partial curve] | –
31 | Cc1occc1C(=O)Nc1ccc(S(N)(=O)=O)cc1 | inconclusive [inhibitor, single point] | –
32 | COc1cc2[nH]c(=O)n(CCCCCC(=O)N3CCN(c4ccc(Cl)cc4)CC3)c(=O)c2cc1OC | active: 7.31 µM | –
33 | O=C(COc1ccc(Cl)cc1Br)NNC(=O)C(=O)N1CCCCC1 | inconclusive [inhibitor, single point] | –
34 | Cc1ccc(CNC(=O)CN(c2cc(C)cc(C)c2)S(=O)(=O)c2c(C)noc2C)cc1 | – | inconclusive: -32% [inhibitor]
35 | CNC(=O)CO/N=C/c1ccc(N(C)C)cc1 | inactive | –
36 | Cc1nc2cc(-c3ccccc3)nn2c(C)c1CCC(=O)NCc1cccc(Cl)c1 | inconclusive [inhibitor, single point] | –
37 | O=C(c1cccs1)N1CCCC(c2nc3c(nnn3Cc3cccc(Cl)c3)c(=O)[nH]2)C1 (stereo unspecified) | inconclusive [inhibitor, single point] | –
38 | c1ccc(Cc2nnc3sc(C4COc5ccccc5O4)nn23)cc1 (stereo unspecified) | inconclusive [inhibitor, partial curve] | –
39 | Cc1ccc2c(c1)NC(=O)C(CC(=O)Nc1ccc(CN3CCC(C)CC3)cc1)O2 (stereo unspecified) | inconclusive [inhibitor, single point] | –
40 | COc1ccc(NC(=O)CSc2nc(C)cc(C)n2)c([N+](=O)[O-])c1 | inconclusive [inhibitor, single point] | –
41 | CCN(CC)CC(=O)Nc1sc(C)cc1C(=O)c1ccc(C)cc1 | inconclusive [inhibitor, partial curve] | –
42 | O=S(=O)(Nc1ccccc1N1CCCCC1)c1ccccc1 | inconclusive [inhibitor, single point] | –
43 | FC(F)(F)c1ccc(Cl)c(-n2c(Cc3cccs3)n[nH]c2=S)c1 | inactive | –
44 | N#Cc1ccc(-c2ccc(F)cc2)nc1Oc1ccc(Cl)c(Cl)c1 | inconclusive [inhibitor, full curve, poor fit] | –
45 | CC1(C)N=C(N)N=C(N)N1c1ccc(OCC(=O)N2CCOCC2)cc1 | inconclusive [inhibitor, partial curve] | –
46 | CC(C)CN1C(=O)c2ccc(C(=O)Nc3c[nH]c(=O)[nH]c3=O)cc2C1=O | inactive | –
47 | CCC(C)(C)NC(=O)CN(Cc1ccc(OC)cc1)C(=O)CCC(=O)Nc1nccs1 | inactive | –
48 | Cc1ccc(S(=O)(=O)N2CCOCC2)cc1C(=O)N(Cc1nnc(-c2ccccc2Cl)o1)C1CC1 | inconclusive [inhibitor, single point] | –

Row | Compound | Potency | activity change, negative = growth inhibition
49 | COCc1cn(CC(C)n2c(=O)c3ccccc3n2Cc2cc(C(C)C)no2)nn1 (stereo unspecified) | inactive | –
50 | COc1ccc2c(c1)cc1c(=O)n(CC(=O)NCCc3ccccc3)nc(C)n12 | inactive | –
51 | CCOC(=O)Cc1ccc(NC(=O)N2CC(C)Oc3ccc(Cl)cc32)cc1 (stereo unspecified) | inconclusive [inhibitor, single point] | –
52 | COC(=O)c1ccccc1NC(=O)c1ccc2c(Cl)c3c(nc2c1)CCCC3 | inactive | –
53 | Cc1nc2ccn(Cc3cccs3)c(=O)c2cc1C(=O)N1CCN(c2ccccc2)CC1 | inconclusive [inhibitor, single point] | –
54 | COc1ccc(N2CCN(CC(=O)Nc3nc(C)cs3)CC2)cc1 | inactive | –
55 | C=CCn1c(C)cc(C(=O)CSc2nnc3c(Cl)cc(Cl)cn23)c1C | inconclusive [inhibitor, single point] | –
56 | c1ccc(OCCOc2cccc3cccnc23)cc1 | inactive | –
57 | Cc1ccc(NC(=O)N/C=C/c2ccco2)cc1 | inactive | –
58 | Cc1cc(C(=O)N/N=C/c2ccc(C)o2)c2ccccc2n1 | active: 1.3 µM | –
59 | CC(=O)Nc1cc2c(c([N+](=O)[O-])c1C)C(C)(C)CC2(C)C | inconclusive [inhibitor, single point] | –
60 | O=C(c1ccco1)N1CCC2(CCCN(c3ccccn3)C2)CC1 | inconclusive [inhibitor, single point] | –
61 | O=S(=O)(Nc1cc(F)ccc1F)c1cccc2nonc12 | inactive | –
62 | COc1ccc(CCNC(=O)c2ccc(CS(=O)(=O)c3ccc(Br)cc3)o2)cc1OC | active: 14.6 µM | –
63 | C=CCSc1nc(N)c2c3c(sc2n1)CN(C)CC3 | inconclusive [inhibitor, single point] | –
64 | Cc1ccc(Cc2ccccc2C(=O)O)cc1 | inactive | –
65 | C=CCN(CC=C)C(=O)CN1C(=O)c2ccccc2C1=O | inactive | –
66 | Cc1ccc2c(c1)N(CC(=O)NCCCN1CCCCC1C)C(=O)c1cccnc1O2 (stereo unspecified) | inactive | –
67 | Nc1cc2[nH]c(=O)c3ccccc3c2cc1[N+](=O)[O-] | inconclusive [inhibitor, single point] | –
68 | COc1ccc(C(=O)CN2CC(C)SC2=Nc2ccc(Cl)cc2)cc1 (stereo unspecified) | active: 23.1 µM | –
69 | Cc1ccc2c(c1)N(S(=O)(=O)c1ccc3c(c1)NC(=O)CC(=O)N3)CCO2 | inconclusive [inhibitor, single point] | –
70 | CN1C(=O)NC(c2ccccc2)C2=C1CN(c1ccc3ccccc3c1)C2=O (stereo unspecified) | inconclusive [inhibitor, full curve, poor fit] | –
71 | Cc1ccc(CNc2nnnn2C)cc1 | inactive | –
